# Assay: ThermoFluor thermostability (Tm)
# Type: physicochemical
# Conditions: Fab fragment; heavy chain clone paired with light chain AB200-(2Vk35)
row,Molecule,Tm [°C]
1,AB200-(2Vk35)_R2-VH-v11 (antibody) heavy: QVQLVQSGAEVKKPGSSVKVSCKASGGTYSNYWIHWVRQAPGQGLEWMGATYRSHSDTNYNEKFKSRVTITADKSTSTAYMELSSLRSEDTAVYYCARGAVYHGYDVIDNWGQGTLVTVSSASTKGPSVFPLAPSSKSTSGGTAALGCLVKDYFPEPVTVSWNSGALTSGVHTFPAVLQSSGLYSLSSVVTVPSSSLGTQTYICNVNHKPSNTKVDKKVEPKSC light: DIQMTQSPSSLSASVGDRVTITCRASQSISSYINWYQQKPGKAPKLLIYATSNLQSGVPSRFSGSGSGTDFTLTISSLQPEDFATYYCQQYRRIPWTFGQGTKLEIKRTVAAPSVFIFPPSDEQLKSGTASVVCLLNNFYPREAKVQWKVDNALQSGNSQESVTEQDSKDSTYSLSSTLTLSKADYEKHKVYACEVTHQGLSSPVTKSFNRGEC,77.406
2,AB200-(2Vk35)_R2-VH-v15 (antibody) heavy: QVQLVQSGAEVKKPGSSVKVSCKASGGSFSNYWIHWVRQAPGQGLEWMGATYRSQSTTYYNQKFKSRVTITADKSTSTAYMELSSLRSEDTAVYYCARGAIFHGYDVIDNWGQGTLVTVSSASTKGPSVFPLAPSSKSTSGGTAALGCLVKDYFPEPVTVSWNSGALTSGVHTFPAVLQSSGLYSLSSVVTVPSSSLGTQTYICNVNHKPSNTKVDKKVEPKSC light: DIQMTQSPSSLSASVGDRVTITCRASQSISSYINWYQQKPGKAPKLLIYATSNLQSGVPSRFSGSGSGTDFTLTISSLQPEDFATYYCQQYRRIPWTFGQGTKLEIKRTVAAPSVFIFPPSDEQLKSGTASVVCLLNNFYPREAKVQWKVDNALQSGNSQESVTEQDSKDSTYSLSSTLTLSKADYEKHKVYACEVTHQGLSSPVTKSFNRGEC,80.901
3,AB200-(2Vk35)_R2-VH-v26 (antibody) heavy: QVQLVQSGAEVKKPGSSVKVSCKASGGTFSNYWIHWVRQAPGQGLEWMGATYRSHSTTYYAQKFKSRVTITADKSTSTAYMELSSLRSEDTAVYYCARGAIFHGYDVIDNWGQGTLVTVSSASTKGPSVFPLAPSSKSTSGGTAALGCLVKDYFPEPVTVSWNSGALTSGVHTFPAVLQSSGLYSLSSVVTVPSSSLGTQTYICNVNHKPSNTKVDKKVEPKSC light: DIQMTQSPSSLSASVGDRVTITCRASQSISSYINWYQQKPGKAPKLLIYATSNLQSGVPSRFSGSGSGTDFTLTISSLQPEDFATYYCQQYRRIPWTFGQGTKLEIKRTVAAPSVFIFPPSDEQLKSGTASVVCLLNNFYPREAKVQWKVDNALQSGNSQESVTEQDSKDSTYSLSSTLTLSKADYEKHKVYACEVTHQGLSSPVTKSFNRGEC,78.816
4,AB200-(2Vk35)_R2-VH-v32 (antibody) heavy: QVQLVQSGAEVKKPGSSVKVSCKASGGTFSNYWIHWVRQAPGQGLEWMGATYRSHSDTNYNQKYKSRVTITADKSTSTAYMELSSLRSEDTAVYYCARGAIFHGYDVIDNWGQGTLVTVSSASTKGPSVFPLAPSSKSTSGGTAALGCLVKDYFPEPVTVSWNSGALTSGVHTFPAVLQSSGLYSLSSVVTVPSSSLGTQTYICNVNHKPSNTKVDKKVEPKSC light: DIQMTQSPSSLSASVGDRVTITCRASQSISSYINWYQQKPGKAPKLLIYATSNLQSGVPSRFSGSGSGTDFTLTISSLQPEDFATYYCQQYRRIPWTFGQGTKLEIKRTVAAPSVFIFPPSDEQLKSGTASVVCLLNNFYPREAKVQWKVDNALQSGNSQESVTEQDSKDSTYSLSSTLTLSKADYEKHKVYACEVTHQGLSSPVTKSFNRGEC,77.066
5,AB200-(2Vk35)_R2-VH-v36 (antibody) heavy: QVQLVQSGAEVKKPGSSVKVSCKASGGTFSNYWIHWVRQAPGQGLEWMGATYRSHSDTYYAEKFKSRVTITADKSTSTAYMELSSLRSEDTAVYYCARGAIFHGYDVIDNWGQGTLVTVSSASTKGPSVFPLAPSSKSTSGGTAALGCLVKDYFPEPVTVSWNSGALTSGVHTFPAVLQSSGLYSLSSVVTVPSSSLGTQTYICNVNHKPSNTKVDKKVEPKSC light: DIQMTQSPSSLSASVGDRVTITCRASQSISSYINWYQQKPGKAPKLLIYATSNLQSGVPSRFSGSGSGTDFTLTISSLQPEDFATYYCQQYRRIPWTFGQGTKLEIKRTVAAPSVFIFPPSDEQLKSGTASVVCLLNNFYPREAKVQWKVDNALQSGNSQESVTEQDSKDSTYSLSSTLTLSKADYEKHKVYACEVTHQGLSSPVTKSFNRGEC,78.599
6,AB200-(2Vk35)_R2-VH-v38 (antibody) heavy: QVQLVQSGAEVKKPGSSVKVSCKASGGTFSNYWIHWVRQAPGQGLEWMGATYRSQSDTYYNEKFKSRVTITADKSTSTAYMELSSLRSEDTAVYYCARGAIYHGFDVIDNWGQGTLVTVSSASTKGPSVFPLAPSSKSTSGGTAALGCLVKDYFPEPVTVSWNSGALTSGVHTFPAVLQSSGLYSLSSVVTVPSSSLGTQTYICNVNHKPSNTKVDKKVEPKSC light: DIQMTQSPSSLSASVGDRVTITCRASQSISSYINWYQQKPGKAPKLLIYATSNLQSGVPSRFSGSGSGTDFTLTISSLQPEDFATYYCQQYRRIPWTFGQGTKLEIKRTVAAPSVFIFPPSDEQLKSGTASVVCLLNNFYPREAKVQWKVDNALQSGNSQESVTEQDSKDSTYSLSSTLTLSKADYEKHKVYACEVTHQGLSSPVTKSFNRGEC,81.457
7,AB200-(2Vk35)_R2-VH-v46 (antibody) heavy: QVQLVQSGAEVKKPGSSVKVSCKASGGTYSNYWIHWVRQAPGQGLEWMGATYRIQSDTNYNQKFKSRVTITADKSTSTAYMELSSLRSEDTAVYYCARGAIYHGYDVIENWGQGTLVTVSSASTKGPSVFPLAPSSKSTSGGTAALGCLVKDYFPEPVTVSWNSGALTSGVHTFPAVLQSSGLYSLSSVVTVPSSSLGTQTYICNVNHKPSNTKVDKKVEPKSC light: DIQMTQSPSSLSASVGDRVTITCRASQSISSYINWYQQKPGKAPKLLIYATSNLQSGVPSRFSGSGSGTDFTLTISSLQPEDFATYYCQQYRRIPWTFGQGTKLEIKRTVAAPSVFIFPPSDEQLKSGTASVVCLLNNFYPREAKVQWKVDNALQSGNSQESVTEQDSKDSTYSLSSTLTLSKADYEKHKVYACEVTHQGLSSPVTKSFNRGEC,76.222
8,AB200-(2Vk35)_R2-VH-v48 (antibody) heavy: QVQLVQSGAEVKKPGSSVKVSCKASGGTYSNYWIHWVRQAPGQGLEWMGGTYRIHSTTYYNQKFKSRVTITADKSTSTAYMELSSLRSEDTAVYYCARGAIYHGFDVIDNWGQGTLVTVSSASTKGPSVFPLAPSSKSTSGGTAALGCLVKDYFPEPVTVSWNSGALTSGVHTFPAVLQSSGLYSLSSVVTVPSSSLGTQTYICNVNHKPSNTKVDKKVEPKSC light: DIQMTQSPSSLSASVGDRVTITCRASQSISSYINWYQQKPGKAPKLLIYATSNLQSGVPSRFSGSGSGTDFTLTISSLQPEDFATYYCQQYRRIPWTFGQGTKLEIKRTVAAPSVFIFPPSDEQLKSGTASVVCLLNNFYPREAKVQWKVDNALQSGNSQESVTEQDSKDSTYSLSSTLTLSKADYEKHKVYACEVTHQGLSSPVTKSFNRGEC,78.848
9,AB200-(2Vk35)_R2-VH-v49 (antibody) heavy: QVQLVQSGAEVKKPGSSVKVSCKASGGTYSNYWIHWVRQAPGQGLEWMGATYRIQSTTYYNQKFKSRVTITADKSTSTAYMELSSLRSEDTAVYYCARGAIYHGYDVIENWGQGTLVTVSSASTKGPSVFPLAPSSKSTSGGTAALGCLVKDYFPEPVTVSWNSGALTSGVHTFPAVLQSSGLYSLSSVVTVPSSSLGTQTYICNVNHKPSNTKVDKKVEPKSC light: DIQMTQSPSSLSASVGDRVTITCRASQSISSYINWYQQKPGKAPKLLIYATSNLQSGVPSRFSGSGSGTDFTLTISSLQPEDFATYYCQQYRRIPWTFGQGTKLEIKRTVAAPSVFIFPPSDEQLKSGTASVVCLLNNFYPREAKVQWKVDNALQSGNSQESVTEQDSKDSTYSLSSTLTLSKADYEKHKVYACEVTHQGLSSPVTKSFNRGEC,79.187
10,AB200-(2Vk35)_R2-VH-v52 (antibody) heavy: QVQLVQSGAEVKKPGSSVKVSCKASGGSFSNYWIHWVRQAPGQGLEWMGATYRIQSDTYYAQKFKSRVTITADKSTSTAYMELSSLRSEDTAVYYCARGAIFHGYDVIDNWGQGTLVTVSSASTKGPSVFPLAPSSKSTSGGTAALGCLVKDYFPEPVTVSWNSGALTSGVHTFPAVLQSSGLYSLSSVVTVPSSSLGTQTYICNVNHKPSNTKVDKKVEPKSC light: DIQMTQSPSSLSASVGDRVTITCRASQSISSYINWYQQKPGKAPKLLIYATSNLQSGVPSRFSGSGSGTDFTLTISSLQPEDFATYYCQQYRRIPWTFGQGTKLEIKRTVAAPSVFIFPPSDEQLKSGTASVVCLLNNFYPREAKVQWKVDNALQSGNSQESVTEQDSKDSTYSLSSTLTLSKADYEKHKVYACEVTHQGLSSPVTKSFNRGEC,76.770
11,AB200-(2Vk35)_R2-VH-v55 (antibody) heavy: QVQLVQSGAEVKKPGSSVKVSCKASGGSFSNYWIHWVRQAPGQGLEWMGATYRIHSTTYYNQKYKSRVTITADKSTSTAYMELSSLRSEDTAVYYCARGAVYHGYDVIDNWGQGTLVTVSSASTKGPSVFPLAPSSKSTSGGTAALGCLVKDYFPEPVTVSWNSGALTSGVHTFPAVLQSSGLYSLSSVVTVPSSSLGTQTYICNVNHKPSNTKVDKKVEPKSC light: DIQMTQSPSSLSASVGDRVTITCRASQSISSYINWYQQKPGKAPKLLIYATSNLQSGVPSRFSGSGSGTDFTLTISSLQPEDFATYYCQQYRRIPWTFGQGTKLEIKRTVAAPSVFIFPPSDEQLKSGTASVVCLLNNFYPREAKVQWKVDNALQSGNSQESVTEQDSKDSTYSLSSTLTLSKADYEKHKVYACEVTHQGLSSPVTKSFNRGEC,80.450
12,AB200-(2Vk35)_R2-VH-v56 (antibody) heavy: QVQLVQSGAEVKKPGSSVKVSCKASGGSFSNYWIHWVRQAPGQGLEWMGATYRIHSDTYYAQKYKSRVTITADKSTSTAYMELSSLRSEDTAVYYCARGAIFHGYDVIDNWGQGTLVTVSSASTKGPSVFPLAPSSKSTSGGTAALGCLVKDYFPEPVTVSWNSGALTSGVHTFPAVLQSSGLYSLSSVVTVPSSSLGTQTYICNVNHKPSNTKVDKKVEPKSC light: DIQMTQSPSSLSASVGDRVTITCRASQSISSYINWYQQKPGKAPKLLIYATSNLQSGVPSRFSGSGSGTDFTLTISSLQPEDFATYYCQQYRRIPWTFGQGTKLEIKRTVAAPSVFIFPPSDEQLKSGTASVVCLLNNFYPREAKVQWKVDNALQSGNSQESVTEQDSKDSTYSLSSTLTLSKADYEKHKVYACEVTHQGLSSPVTKSFNRGEC,77.030

# Reference: patent publication US12043670B2, “Anti-BCMA antibody-drug conjugates and methods of use” (Eisai R&D Management Co., Ltd., priority 2020, dated 2024)
